PubChem BioAssay AID1508642 (National Center for Advancing Translational Sciences (NCATS), 2021)
About 200 (0.47%) of roughly 43,000 compounds were called active. Another 12% or so got no clear call; they are omitted. Calls come from the whole dose curve; as a rule, active = well fitted cell-killing curve with a large enough effect; inconclusive = small, poorly fitted or top-dose-only effect, or effect the other way; inactive = flat fitted curve, though single readings scatter. The list shows a part of the results.

Assay: Cell viability qHTS assay in S16 Pmp22-F2sN cells; note: nearly all actives have a fitted effect of over 65% in size
Conditions: S16 Pmp22-F2sN Schwann cells (luciferase reporters placed in the Pmp22 gene) viability, CellTiter-Glo, 24 h; series mostly up to 57.5 µM; activity change, negative = cytotoxicity: at the top concentration
Outline: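 CellTiter-Glo counter-screen, qHTS, 1536-well. Cells: S16(c9) Pmp22-F2sN, 500-1,000/well in DMEM + 10% FBS. Cpd 23 nL pin transfer, 24 h, 37C/5% CO2. Read: luminescence, CCD imager.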
% is set by controls: 0 for no effect and ±100 for the full control effect.

Row | SMILES | activity change, negative = cytotoxicity
1 | COc1ccc(CNc2nc(-c3ccc(OC)cc3)cc(C(F)(F)F)n2)cc1 | inactive: -2.5%
2 | COc1ccc(NC(=O)Cn2c(=O)cc(C)c3c(C)nn(C)c32)cc1 | inactive: 0.839%
3 | CCCSc1ncc(Cl)c(C(=O)Nc2ccc(S(=O)(=O)N3CCC(C)CC3)cc2)n1 | inactive: -9.57%
4 | CCOc1ccc(NC(=O)Cn2cc(C(=O)c3ccc(CC)cc3)c(=O)c3cc4c(cc32)OCO4)cc1 | inactive: 13.7%
5 | Cc1ccc(Cl)cc1N1CCN(C(=O)c2cnn(C(C)(C)C)c2C2CCN(C(=O)OC(C)(C)C)CC2)CC1 | inactive: -7.16%
6 | COc1ccc(NC(=O)c2cnc(Nc3ccc(C)c(Cl)c3)c3ccccc23)c(OC)c1 | inactive: 4.44%
7 | Cc1ccccc1CCNC(=O)c1ccc(NC(=O)N2CC(C)Sc3ccccc32)cc1 (stereo not drawn) | inactive: -9.14%
8 | O=C(COc1ccc(Cl)cc1)NCC(c1ccco1)S(=O)(=O)c1ccccc1 (stereo not drawn) | inactive: 3.5%
9 | COc1ccccc1NC(=O)c1sc2nc3c(c(C(F)(F)F)c2c1N)CN(C(C)=O)CC3 | inactive: -1.48%
10 | Cc1cc(C)c(NC(=O)CSc2n[nH]c(-c3ccccc3Cl)n2)c(C)c1 | inactive: 1.34%
11 | Cc1nn(-c2ccc(N3CCOCC3)nn2)c(C)c1CCC(=O)NCc1ccccc1 | inactive: -21.3%
12 | CCn1nc(C)c2c(-c3ccccc3)cc(=O)n(C(C)C(=O)Nc3cccc(F)c3)c21 (stereo not drawn) | inactive: -4.76%
13 | CCc1ccc(NC(=O)C(=O)NCCc2csc(-c3cccc(F)c3)n2)cc1 | inactive: 6.75%
14 | CSc1nn(Cc2ccccc2C)c(NC(C)=O)c1S(=O)(=O)c1ccc(C)cc1 | inactive: -1.19%
15 | COc1ccc(NC(=O)CCc2nc3c(C)nn(-c4ccc(C)cc4)c3n(C)c2=O)c(OC)c1 | inactive: 1.2%
16 | CCOC(=O)CCn1c(=O)c2cccn2c2cccnc21 | inactive: 3.07%
17 | Cc1ccc2nc(-c3ccsc3)c(Nc3ccc(C(C)C)cc3)n2c1 | inactive: 2.43%
18 | COc1ccccc1C(=O)Nc1ccc2nc(SCC(=O)N3CCCC3)sc2c1 | inactive: -5.93%
19 | COCCNC(=O)CCCn1c(SCC(=O)c2ccc(F)cc2)nc2c(sc3ccccc32)c1=O | inactive: -1.8%
20 | Cc1ccc(NC(=O)/C(C#N)=C\c2ccc(-c3ccc(Cl)cc3)o2)c(C)c1 | inactive: -5.12%
21 | CCOc1ccc(-c2c(C)nn3c(C)c(C(=O)Nc4cccc(Cl)c4C)cnc23)cc1OCC | inactive: -1.58%
22 | Cc1ccc(NC(=O)c2cc(S(=O)(=O)N3CCC(C)CC3)cn2C)cc1Cl | inactive: 0.525%
23 | COCCN1Cc2cccc(C(=O)Nc3ccc(C(=O)OC)cc3)c2C1=O | inactive: 5.03%
24 | Cc1ccccc1NC(=O)c1cc2sccc2n1Cc1ccc(F)cc1 | inactive: 0.811%

Row | SMILES | activity change, negative = cytotoxicity
25 | CN(c1ccccc1)S(=O)(=O)c1nnc(NC(=O)c2ccco2)s1 | inactive: 2.09%
26 | CCCCCn1c(=O)[nH]c2cc(C(=O)N3CCN(c4cccc(Cl)c4)CC3)ccc2c1=O | inactive: 1.04%
27 | COc1ccc(OC)c(CNC(=O)c2cc(S(=O)(=O)N3CCC(C)CC3)cn2C)c1 | inactive: 2.72%
28 | CCOc1ccccc1NC(=O)C(=O)c1cc(C)n(-c2cccc(C)c2C)c1C | inactive: -2.18%
29 | COc1ccccc1NC(=O)C1=C(C)Nc2nc(SCc3ccccc3F)nn2C1c1ccncc1 (stereo not drawn) | inactive: 9.55%
30 | CC(C)Cc1nn2c(=O)cc(COC(=O)c3ccccc3NC(=O)c3cccs3)nc2s1 | inactive: 11.7%
31 | COc1cccc(NC(=O)CCSc2nc(-c3ccco3)cc(C(F)(F)F)n2)c1 | inactive: -25%
32 | CCOc1ccc(CCNC(=O)c2cc3cc4cc(OC)ccc4nc3s2)cc1OCC | inactive: -2.84%
33 | CCc1nn2c(=O)cc(COC(=O)c3cccc(NC(=O)COc4ccccc4)c3)nc2s1 | inactive: -4.9%
34 | COc1ccc(-c2noc(N3CCN(c4ccc(Cl)cc4)CC3)n2)cc1OC | inactive: 2.5%
35 | COc1ccc(CNC(=O)C2CCN(S(=O)(=O)c3ccc4nc5c(c(C(=O)O)c4c3)CCCC5)CC2)cc1 | inactive: 5.2%
36 | CCc1cccc(C)c1NC(=O)C1CCN(c2nnc(C)c3c(C)n(-c4ccccc4)nc23)CC1 | inactive: -0.0975%
37 | Cc1cccc(NC(=O)C2CCN(S(=O)(=O)c3ccc4[nH]c5c(c4c3)CCCCC5)CC2)c1 | inactive: -15.1%
38 | Cc1cc(C)cc(NC(=O)Cn2cc(C(=O)c3ccncc3)c(=O)c3cc(C)c(C)cc32)c1 | inactive: -1.39%
39 | Nc1nnc(SCC(=O)Nc2cccc(F)c2)s1 | inactive: 0.496%
40 | Cc1ccccc1CN1C(=O)c2ccccc2Sc2ccc(C(=O)O)cc21 | inactive: 4.79%
41 | Cc1ccc(CS(=O)Cc2ccc(C(=O)NCc3ccccc3Cl)o2)cc1 (stereo not drawn) | inactive: 0.441%
42 | Cc1ccc(NC(=O)C2CCCN(c3cnccn3)C2)cc1Cl (stereo not drawn) | inactive: 11.4%
43 | CC(C)c1ccc(NC(=O)C2CCN(S(=O)(=O)c3ccc(Br)s3)CC2)cc1 | inactive: 8.9%
44 | Cc1ccc(S(=O)(=O)c2nnn3c2nc(NCc2ccccc2)c2sccc23)cc1 | inactive: -1.76%
45 | Clc1ccc(Nc2nc(-c3ccccc3)c3ccccc3n2)c(Cl)c1 | inactive: -0.181%
46 | COc1ccccc1C(=O)Nc1cccc(OCc2cc(=O)n3c(C)csc3n2)c1 | inactive: 0.867%
47 | O=S(=O)(c1cc(Br)c(Br)s1)N1CCN(c2ccccc2)CC1 | inactive: -0.197%
48 | COc1ccc(-c2nc3sc(CCNC(=O)Cc4ccc(Cl)cc4)c(C)n3n2)cc1 | inactive: -22.5%
